Measurements taken from the supplement of paper PMC12217912.
This is one part of the list. The full chains were built here from the parent and the listed change. Values near 0.05 are background.

B1: TEV protease; numbered along this chain (parent)
chain: MGESLFKGPRDYNPISSSICHLTNESDGHTTSLYGIGFGPFIITNKHLFRRNNGTLVVQSLHGVFKVKDTTTLQQHLVDGRDMIIIRMPKDFPPFPQKLKFREPQREERICLVTTNFQTKSMSSMVSDTSCTFPSGDGIFWKHWIQTKDGQCGSPLVSTRDGFIVGIHSASNFTNTNNYFTSVPKNFMELLTNQEAQQWVSGWRLNADSVLWGGHKVFMVKPEEPFQPVKEATQL

Variants of: B1
Assay: raw area under fraction-flipped curve 0-4 h after induction (AUC4h, not background-subtracted), DNA-recorder readout of cleavage of the substrate (dimensionless); higher = more cleavage of the substrate by the protease variant
Conditions: temperature: 34 °C; time window: 0-4 h after rhamnose induction
Experimental: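 In vivo DNA recorder in E. coli TOP10(DE3) ΔrhaA at 34 °C. Each TEVp single-site mutant (parent TEVp 0) is paired with a single-site variant of the 7-mer TEVs (canonical ENLYFQ|S). The substrate sits between flexible linkers in a Bxb1-sfGFP-TEVs-SsrA fusion, so cleavage stabilises Bxb1 and speeds flipping of a recombination array, read by NGS. The value is the raw area under the fraction-flipped curve over 0-4 h after rhamnose induction (AUC4h), with ≥20 reads per time point. It is not background-subtracted; inactive controls average about 0.047.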
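Further: Bxb1 expression induced with 0.2% (w/v) L-rhamnose at OD600 near 0.5, cultures sampled hourly, flipped fraction per protease–substrate barcode pair counted by paired-end Illumina sequencing.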

| Variant | area with substrate ENLYFQA | area with substrate ENLYFQL | area with substrate ENLYFQM | area with substrate ENLYFQN | area with substrate ENLYFQP | area with substrate ENLYFQR | area with substrate ENLYFQS | area with substrate ENLYFQT | area with substrate ENLYFQW | area with substrate ENLYFQY | area with substrate ENLYFQC | area with substrate ENLYFQG | area with substrate ENLYFQH | area with substrate ENLYFQI | area with substrate ENLYFQK | area with substrate ENLYFQQ | area with substrate ENLYFQD | area with substrate ENLYFQF | area with substrate ENLYFQV | area with substrate ENLYFQE |
| --- | --- | --- | --- | --- | --- | --- | --- | --- | --- | --- | --- | --- | --- | --- | --- | --- | --- | --- | --- | --- |
| Q118I | 0.108 | 0.0701 | 0.106 | 0.0684 | 0.0575 | 0.0551 | 0.103 | 0.0601 | 0.061 | 0.113 | – | – | – | – | – | – | – | – | – | – |
| Q197A | 0.0975 | 0.062 | – | 0.0711 | – | 0.0621 | 0.092 | 0.0573 | – | – | 0.0947 | 0.0996 | 0.0732 | 0.0325 | 0.0714 | 0.0714 | – | – | – | – |
| T174N | 0.12 | 0.0853 | 0.066 | 0.07 | – | 0.0666 | 0.107 | 0.0591 | 0.0746 | – | – | – | – | – | 0.0555 | 0.0613 | 0.0564 | – | – | – |
| F6W | 0.105 | 0.062 | 0.0444 | 0.0765 | 0.0687 | 0.0716 | 0.0995 | 0.0678 | 0.0626 | 0.0738 | 0.131 | 0.0913 | 0.0983 | 0.0438 | 0.0675 | – | 0.0697 | 0.0633 | 0.0578 | – |
| D27M | 0.0587 | 0.0625 | – | – | 0.044 | 0.0662 | 0.091 | 0.063 | 0.0791 | – | 0.0971 | 0.0644 | 0.0682 | 0.0527 | – | 0.0733 | – | – | – | – |
| K230H | 0.0926 | 0.0737 | 0.047 | 0.0778 | – | 0.0676 | 0.109 | 0.0578 | 0.0481 | 0.0584 | 0.14 | 0.097 | – | 0.051 | 0.054 | – | 0.0823 | 0.0741 | – | – |
| M125Q | 0.085 | 0.0683 | 0.0923 | 0.0812 | – | 0.063 | 0.103 | 0.0682 | 0.0735 | – | 0.107 | 0.0983 | 0.0959 | 0.0621 | 0.0814 | – | 0.0563 | – | – | 0.0578 |
| F133H | 0.101 | 0.0608 | 0.0909 | – | 0.0578 | 0.0787 | 0.111 | 0.0751 | 0.0977 | – | – | 0.0936 | – | – | – | – | – | – | – | – |
| Q74M | 0.083 | 0.0583 | 0.0839 | 0.0848 | 0.0698 | 0.049 | 0.0964 | 0.0703 | 0.0594 | 0.0721 | 0.107 | – | – | 0.0581 | 0.0631 | – | – | 0.0656 | – | 0.0521 |
| V229T | 0.0864 | 0.0762 | 0.0905 | – | – | – | 0.0888 | – | 0.0507 | – | 0.108 | – | – | 0.0496 | – | – | – | – | – | – |
| H47Q | 0.0483 | 0.0617 | 0.06 | 0.0581 | – | 0.058 | 0.0617 | 0.0569 | – | – | 0.0581 | 0.073 | 0.0587 | 0.0524 | 0.0666 | – | 0.0544 | – | – | – |
| H76K | 0.0716 | 0.0599 | – | – | – | 0.0673 | 0.0833 | 0.062 | 0.0727 | – | 0.088 | – | 0.0729 | – | – | 0.0766 | – | – | – | – |
| P94S | 0.0637 | 0.0653 | – | 0.0667 | 0.0492 | – | 0.106 | 0.0699 | – | 0.0755 | 0.102 | 0.11 | – | 0.0739 | – | – | – | – | – | – |
| A207G | 0.105 | 0.0643 | 0.0784 | – | – | 0.0595 | 0.108 | – | 0.0639 | – | 0.12 | – | 0.0884 | 0.0576 | 0.0626 | – | – | – | – | – |
